Test results published in article PMC4336329 (PLoS ONE, 2015).
About 2,200 (0.71%) of roughly 310,000 compounds showed an effect of 50% or more. The effect is printed as a negative number. The list shows a part of the results.

The compounds below were run against human ether-à-go-go-related gene (hERG) potassium channel (human, UniProt Q12809) (assay: primary screen, population patch clamp on CHO cells stably expressing hERG).
Sequence of human ether-à-go-go-related gene (hERG) potassium channel (Q12809 whole entry, looked up): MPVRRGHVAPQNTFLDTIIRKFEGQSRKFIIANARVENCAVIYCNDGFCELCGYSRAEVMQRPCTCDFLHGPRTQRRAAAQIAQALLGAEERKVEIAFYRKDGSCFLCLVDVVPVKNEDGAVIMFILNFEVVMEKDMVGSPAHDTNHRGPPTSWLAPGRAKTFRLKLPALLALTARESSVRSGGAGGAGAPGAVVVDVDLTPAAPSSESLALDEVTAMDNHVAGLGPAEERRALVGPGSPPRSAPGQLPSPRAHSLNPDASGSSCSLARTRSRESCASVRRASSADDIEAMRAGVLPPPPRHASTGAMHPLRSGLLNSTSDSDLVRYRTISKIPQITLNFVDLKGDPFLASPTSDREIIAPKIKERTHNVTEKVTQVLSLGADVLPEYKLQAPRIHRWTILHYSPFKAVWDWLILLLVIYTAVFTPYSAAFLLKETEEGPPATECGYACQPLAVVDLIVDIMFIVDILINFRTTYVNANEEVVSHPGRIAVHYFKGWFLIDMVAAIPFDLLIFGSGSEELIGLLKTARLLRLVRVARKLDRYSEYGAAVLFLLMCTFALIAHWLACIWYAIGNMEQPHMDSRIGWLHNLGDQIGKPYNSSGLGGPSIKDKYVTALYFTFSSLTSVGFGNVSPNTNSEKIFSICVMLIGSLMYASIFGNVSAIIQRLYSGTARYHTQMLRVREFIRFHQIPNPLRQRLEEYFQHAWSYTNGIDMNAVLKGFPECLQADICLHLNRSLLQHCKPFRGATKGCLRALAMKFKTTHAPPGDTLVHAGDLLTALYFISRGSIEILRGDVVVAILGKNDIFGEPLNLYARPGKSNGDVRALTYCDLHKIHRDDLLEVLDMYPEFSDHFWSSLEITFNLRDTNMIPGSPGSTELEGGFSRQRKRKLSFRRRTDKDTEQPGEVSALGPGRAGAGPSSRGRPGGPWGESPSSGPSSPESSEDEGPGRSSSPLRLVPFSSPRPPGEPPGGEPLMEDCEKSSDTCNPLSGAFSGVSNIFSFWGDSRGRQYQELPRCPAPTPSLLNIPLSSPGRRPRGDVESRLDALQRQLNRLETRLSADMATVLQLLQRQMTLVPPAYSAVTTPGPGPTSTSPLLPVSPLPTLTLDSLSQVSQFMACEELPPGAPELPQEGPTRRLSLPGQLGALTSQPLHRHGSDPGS
C/C(=N\Nc1ccc([N+](=O)[O-])cc1[N+](=O)[O-])C(C)C(C)C (centres unmarked) was tested, and the “hERG current change (%, negative = inhibition) at 1uM” value was -3.16%.
In the case of Cc1cccc(CN2CCN(Cc3cnn(-c4ccccc4F)c3)CC2CCO)n1 (centres unmarked), the “hERG current change (%, negative = inhibition) at 1uM” value is reported as 2.62%.
With Cc1ccnc2nc(C(=O)Nc3ccc(S(=O)(=O)N4CCCC4)cc3)nn12 the “hERG current change (%, negative = inhibition) at 1uM” value was 9.87%.
With Cc1noc(C)c1S(=O)(=O)Nc1ccc(C(=O)NC2CCCCCC2)cc1 the “hERG current change (%, negative = inhibition) at 1uM” value was 18.2%.
Cc1c(C#N)c(O)[nH]c(=O)c1N=Nc1ccc(Cl)c(C(=O)O)c1 was tested, and the “hERG current change (%, negative = inhibition) at 1uM” value was 9.09%.
In the case of CCCCn1c(N)c(N(CC(C)C)C(=O)c2ccncc2)c(=O)[nH]c1=O, the “hERG current change (%, negative = inhibition) at 1uM” value is reported as 21.1%.
For O=C(c1ccc(Cl)s1)N1CCN(c2nc3ccccc3s2)CC1, the “hERG current change (%, negative = inhibition) at 1uM” value was -8.14%.
Cn1c(-c2cccc(OCc3ccccc3)c2)nc2c1c(=O)[nH]c(=O)n2Cc1ccccc1 was tested, and the “hERG current change (%, negative = inhibition) at 1uM” value was 8.31%.
N#CCC(=O)Nc1ccc(C(=O)NCC2(N3CCOCC3)CCCCC2)cc1 was tested, and the “hERG current change (%, negative = inhibition) at 1uM” value was 10.9%.
For O=S(=O)(c1ccc(N2CCCC2c2nc3ccccc3s2)nc1)N1CCOCC1 (centres unmarked), the “hERG current change (%, negative = inhibition) at 1uM” value was 12.7%.
With CCOCCCNC(=O)c1ccc(OC)c(OC2CCN(C(C)C)CC2)c1 the “hERG current change (%, negative = inhibition) at 1uM” value was 13.2%.
With O=c1[nH]c2ccc(NC(=S)NCc3ccccc3)cc2[nH]1 the “hERG current change (%, negative = inhibition) at 1uM” value was 8.48%.
In the case of CC(=O)Nc1nc(C)c(C(C)=O)s1, the “hERG current change (%, negative = inhibition) at 1uM” value is reported as 12.4%.
In the case of CCCOC(=O)c1sc2nc3c(cc2c1N)C(=O)CCC3, the “hERG current change (%, negative = inhibition) at 1uM” value is reported as 12%.
With CN1C(=O)N(C)C2(C)CC1(C)N(C)C(=O)N2C the “hERG current change (%, negative = inhibition) at 1uM” value was 24.7%.
For Cc1cc(NC(=O)COC(=O)c2c(C)nn(Cc3ccccc3Cl)c2C)no1, the “hERG current change (%, negative = inhibition) at 1uM” value was 8.53%.
In the case of COCc1ccc(CN2CCC(n3nccc3NC(=O)CCCc3ccccc3)CC2)o1, the “hERG current change (%, negative = inhibition) at 1uM” value is reported as 63%.
In the case of CCc1ccc(NC(=O)C(C)OC(=O)c2ccc(-n3cnnn3)cc2)cc1 (centres unmarked), the “hERG current change (%, negative = inhibition) at 1uM” value is reported as -1.61%.
In the case of COc1ccc(CN=CC2=C(O)CNC2=O)cc1, the “hERG current change (%, negative = inhibition) at 1uM” value is reported as 8.98%.
C/C(=N\NC(=S)NCc1ccccc1)c1ccc(C)o1 was tested, and the “hERG current change (%, negative = inhibition) at 1uM” value was -1.19%.
COc1ccc(NC(=O)C2CC(=O)NC(Nc3cccc(C)c3)=N2)cc1 (centres unmarked) was tested, and the “hERG current change (%, negative = inhibition) at 1uM” value was 11.6%.
Cl.NC(=NCc1ccccc1)c1cccc([N+](=O)[O-])c1 was tested, and the “hERG current change (%, negative = inhibition) at 1uM” value was -1.93%.
In the case of COc1cccc(-c2ccc(C#N)c(OC(=O)c3ccc(Cl)cc3)n2)c1, the “hERG current change (%, negative = inhibition) at 1uM” value is reported as 3.1%.
In the case of Cc1ccc2c(c1)N(C(=O)CCC(=O)N1CCC(C(N)=O)CC1)CC(C)O2 (centres unmarked), the “hERG current change (%, negative = inhibition) at 1uM” value is reported as 6.45%.
For O=C1C=C(NCc2ccncc2)CC(c2ccccc2)C1 (centres unmarked), the “hERG current change (%, negative = inhibition) at 1uM” value was -22.8%.
COc1ccc(NC(=O)Nc2cccc3ccccc23)c(OC)c1 was tested, and the “hERG current change (%, negative = inhibition) at 1uM” value was 11.3%.
CCOC(=O)C1=C(COC(=O)CCOc2cccc(C)c2)NC(=O)NC1C (centres unmarked) was tested, and the “hERG current change (%, negative = inhibition) at 1uM” value was 7.56%.
For O=S(=O)(O)CCN1CCOCC1, the “hERG current change (%, negative = inhibition) at 1uM” value was 9.27%.
With O=C(Nc1ccccc1)c1ccccc1CSc1ccccc1 the “hERG current change (%, negative = inhibition) at 1uM” value was 2.86%.
With COc1ccccc1NC(=O)CN(C)S(=O)(=O)c1cccc2cccnc12 the “hERG current change (%, negative = inhibition) at 1uM” value was 14.1%.
For N=c1c2c(-c3ccccc3)c(-c3ccccc3)n(Cc3ccco3)c2ncn1CCN1CCOCC1, the “hERG current change (%, negative = inhibition) at 1uM” value was -72.3%.
In the case of Cc1ccc(-c2cn(-c3ccccc3)c(SCC(=O)NC3CCS(=O)(=O)C3)n2)cc1C (centres unmarked), the “hERG current change (%, negative = inhibition) at 1uM” value is reported as 8.68%.
In the case of CN(CC(=O)Nc1ccccc1Cl)C(=O)COC(=O)Cc1c(F)cccc1Cl, the “hERG current change (%, negative = inhibition) at 1uM” value is reported as 8.28%.
With CC(CN1CCC(n2nccc2NC(=O)c2ccccc2Cl)CC1)c1ccccc1 (centres unmarked) the “hERG current change (%, negative = inhibition) at 1uM” value was -43.6%.
For CN(Cc1cc2ccccc2[nH]c1=O)C(=O)COc1ccccc1, the “hERG current change (%, negative = inhibition) at 1uM” value was -0.0687%.
In the case of O=C1CSC(c2nn(-c3ccccc3)cc2-c2cc3ccccc3oc2=O)N1Cc1ccco1 (centres unmarked), the “hERG current change (%, negative = inhibition) at 1uM” value is reported as 8.17%.
For COc1ccc(C=NCC2COc3ccccc3O2)cc1OC.Cl (centres unmarked), the “hERG current change (%, negative = inhibition) at 1uM” value was 4.99%.
CCc1ccccc1NC(=O)c1ccc(NCCc2ccccc2)c([N+](=O)[O-])c1 was tested, and the “hERG current change (%, negative = inhibition) at 1uM” value was 4.62%.
CCCOC(=O)C1C2c3ccccc3C(c3ccccc32)C1C(=O)O (centres unmarked) was tested, and the “hERG current change (%, negative = inhibition) at 1uM” value was 15.4%.
C#CC(C)(C)NC(=O)c1cnc(-c2ccccc2)nc1-c1ccccc1 was tested, and the “hERG current change (%, negative = inhibition) at 1uM” value was 13.1%.
O=c1c(C=NCCN2CCNCC2)c(-c2ccccc2)[nH]n1-c1ccc([N+](=O)[O-])cc1 was tested, and the “hERG current change (%, negative = inhibition) at 1uM” value was -31%.
Cc1ccc(S(=O)(=O)NC2=C(N3CCN(Cc4ccccc4)CC3)C(=O)c3ccccc3C2=O)cc1 was tested, and the “hERG current change (%, negative = inhibition) at 1uM” value was 7.91%.
Cc1nc(C)c(CCNC(=O)c2ccc(C(F)(F)F)cc2)s1 was tested, and the “hERG current change (%, negative = inhibition) at 1uM” value was -2.89%.
Cc1ccc(C2Nc3ccccc3NC3=C2C(=O)OC(C)C3)cc1 (centres unmarked) was tested, and the “hERG current change (%, negative = inhibition) at 1uM” value was 8.51%.
CC(C)C[C@H](NC(=O)[C@@H](Cc1ccccc1)n1c(=O)[nH]c2ccccc2c1=O)C(=O)N[C@@H](Cc1ccccc1)C(=O)O was tested, and the “hERG current change (%, negative = inhibition) at 1uM” value was -0.933%.
Cc1c(C)c2ccc(OCC(=O)N3CCN(c4ccccc4)CC3)cc2oc1=O was tested, and the “hERG current change (%, negative = inhibition) at 1uM” value was -4.53%.
With CC(N)=Nc1ccc([N+](=O)[O-])cc1 the “hERG current change (%, negative = inhibition) at 1uM” value was 14.5%.
For Cc1ccc([C@@H]2[C@@H]3C(=O)N(c4ccccc4)C(=O)[C@@H]3[C@]3(C)C(=O)N(Cc4ccccn4)CC(=O)N23)o1, the “hERG current change (%, negative = inhibition) at 1uM” value was 11.1%.
COc1ccc(OC)c(S(=O)(=O)N2CCC(C(=O)NCCc3ccccc3)CC2)c1 was tested, and the “hERG current change (%, negative = inhibition) at 1uM” value was 1.04%.
For COC(=O)CSc1nc2cc(OC)ccc2cc1C#N, the “hERG current change (%, negative = inhibition) at 1uM” value was 8.04%.
In the case of CNC(=O)COc1coc(CN2CCN(c3ccccc3)CC2)cc1=O, the “hERG current change (%, negative = inhibition) at 1uM” value is reported as 8.02%.
In the case of CCOc1cc(S(=O)(=O)n2ccnc2)ccc1Br, the “hERG current change (%, negative = inhibition) at 1uM” value is reported as 14.5%.
For Cc1cc(C)c(C(=O)Nc2cccc(F)c2)c(Cl)n1, the “hERG current change (%, negative = inhibition) at 1uM” value was 5.53%.
In the case of CCn1c(C)cc2c(c1=O)C(c1ccccc1Br)C(C#N)=C(N)O2 (centres unmarked), the “hERG current change (%, negative = inhibition) at 1uM” value is reported as 8.2%.
With COc1ccc(N2CCOCC2)c(NC(=O)c2cc3ccccc3o2)c1 the “hERG current change (%, negative = inhibition) at 1uM” value was 3.34%.
For Cc1ccc(-n2nc(C)c3c(C)onc3c2=O)cc1, the “hERG current change (%, negative = inhibition) at 1uM” value was 10.6%.
